Reference: US20060057694A1, “Rat receptor tyrosine knase, kdr” (priority 2003, published 2006)

Columns and labels:
[1] = tested on: rat KDR intracellular domain; assay: Autophosphorylation assay of rat KDR (Western blot, anti-PY antibody); type: biochemical; conditions: purified GST-tagged protein 2.5 μg/ml, 1 mM ATP, 25° C.
Procedure: To determine the functional consequence of the substitution of an Asp residue at position 1083 of optimized rat KDR with Gly, as occurs in the published rat KDR sequence, RK7 (the fragment representing the intracellular domain of optimized rat KDR) was altered at position 1083 to contain a Gly (G) by site-directed mutagenesis. Both RK7 and the RK7(G1083) variant were expressed as GST-tagged fusion proteins in insect cells using a baculovirus system. The proteins were evaluated in terms of their abilities to autophosphorylate.
Purified recombinant GST-tagged RK7 (2.5 μg/ml) and RK7 (G1083) (2.5 μg/ml) were pre-incubated separately at 25° C. for 10 min in 10 mM MgCl2, 2 mM MnCl2, 100 mM NaCl, 50 mM Tris-HCl (pH 7.2), 0.5 mg/ml BSA, 0.5 mM Na3VO4 and 0.5 mM TCEP (Tris[2-carboxyethylphosphine] hydrochloride (Pierce)) in two microcentrifuge tubes. The autophosphorylation reactions were initiated by addition of a small volume of 10 mM ATP to each of the tubes to yield a final ATP concentration of 1 mM. Aliquots were withdrawn from each of the reactions at various times and mixed immediately with an equal volume of 50 mM EDTA to stop the autophosphorylation reaction. The EDTA-containing samples were then mixed with 2× Tris-Glycine SDS sample buffer (Novex) containing 100 mM dithiothreitol and boiled for 5 min. The samples were electrophoresed on two 8% acrylamide-Tris-Glycine gels (Novex). […]

[2] = tested on: synthetic biotinylated peptide substrate (biotinylated EQEDEPEGDYFEWLE); assay: Tyrosine phosphorylation of a synthetic biotinylated peptide substrate (time-resolved fluorescence); type: biochemical; conditions: 1 μM substrate, 10 μM ATP, serial-diluted enzyme, 35 min at room temperature
Procedure: To further investigate the functional consequence of substitution of the Asp residue at position 1083 of the optimized rat KDR with Gly, as occurs in the published rat KDR sequence, purified GST-RK7 and RK7 (G1083) were evaluated in terms of their abilities to phosphorylate a synthetic biotinylated peptide substrate.
A master reaction mix was prepared which contained 1 μM substrate (biotinylated EQEDEPEGDYFEWLE; SEQ ID NO:10), 10 μM ATP, 10 mM MgCl2, 2 mM MnCl2, 100 mM NaCl, 50 mM Tris-HCl (pH 7.2), 0.5 mg/ml BSA, 0.5 mM Na3VO4, and 0.5 mM TCEP. The master mix was distributed to the wells (50 μl per well) of a black 96-well plate. The kinase reactions were initiated by addition of 10 μl of GST-RK7 or GST-RK7 (G1083) pre-serial-diluted in the above buffer less the substrate and ATP. Each reaction was allowed to proceed for 35 min at room temperature with shaking and then stopped by addition of 50 μl of a quench buffer containing 0.8 μg/ml Eu(K)-PT-66 (an europium cryptate-labeled anti-phosphotyrosine antibody), 10 μg/ml streptavidin-XL665, 100 mM EDTA, 0.5 mM KF, 0.1% Triton X-100. The quenched reactions were incubated for 5 hours at room temperature and then read in Discovery (Packard), a time-resolved fluorescence detector.

B1: GST-RK7: GST-6xHis-tagged fusion of RK7, the intracellular kinase domain fragment of optimized rat KDR (SEQ ID NO:18) (protein)
chain: [about 200 residues omitted]SDPMGHHHHHHGRRRASVAAGILVPRGSPGLDGICSIEEFRPPWKRANEGELKTGYLSIVMDPDELPLDERCERLPYDASKWEFPRDRLKLGKPLGRGAFGQVIEADAFGIDKTATCKTVAVKMLKEGATHSEHRALMSELKILIHIGHHLNVVNLLGACTKPGGPLMVIVEFCKFGNLSTYLRGKRNEFVPYKSKGARFRSGKDYVGELSVDLKRRLDSITSSQSSASSGFVEEKSLSDVEEEEASEELYKDFLTLEHLICYSFQVAKGMEFLASRKCIHRDLAARNILLSEKNVVKICDFGLARDIYKDPDYVRKGDARLPLKWMAPETIFDRVYTIQSDVWSFGVLLWEIFSLGASPYPGVKIDEEFCRRLKEGTRMRAPDYTTPEMYQTMLDCWHEDPNQRPAFSELVEHLGNLLQANAQQDGKDYIVLPMSETLSMEEDSGLSLPTSPVSCMEEEEVCDPKFHYDNTAGISHYLQNSKRKSRPVSVKTFEDIPLEEPEVKVIPDDSQTDSGMVLASEELKTLEDRNKLSPSFGGMMPSKSRESVASEGSNQTSGYQSGYHSDDTDTTVYSSDEAGLLKLVDVAGHVDSGTTLRSSPV
[1]
  ability to autophosphorylate: rapid autophosphorylation
[2]
  tyrosine kinase activity on synthetic biotinylated peptide substrate: tyrosine-phosphorylated the peptide substrate
[2]; listed as RK7
  tyrosine kinase activity on synthetic biotinylated peptide substrate: able to tyrosine phosphorylate the synthetic peptide
